# The full ranking holds about 81,000 sequences; the median of “one-hybrid fitness for binding NBS DNA” is about -0.1, and the highest 2% start at about 0.36. The list shows a part of the results.
# B1: Caulobacter ParB omega fusion; a variant is named by its letters at X, in order, B8GW30 (parent)
# chain: MESVVVGEPGMSEGRRGLGRGLSALLGEVDAAPAQAPGEQLGGSREAPIEILQRNPDQPRRTFREEDLEDLSNSIREKGVLQPILVRPSPDTAGEYQIVAGERAWRAAQRAGLKTVPIMVRELDDLAVLEIGIIENVQRADLNVLEEALSYKVLMEKFERTQENIAQTIGKSXSHVANXMRLLXLPDEVQSYLVSGELTAXHARAIAAAADPVALAKQIIEGGLSVRETEALARKAPNLSAGKSKGGRPPRVKDTDTQALESDLSSVLGLDVSIDHRGSTGTLTITYATLEQLDDLCNRLTRGI
# Variants of: B1
# Experiment: one-hybrid fitness for binding NBS DNA (the Noc-binding site; scaled: cognate 1, non-cognate 0); higher = stronger binding
# Settings: with NBS DNA site
# How it was run: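 Selection: bacterial one-hybrid in E. coli USO, HIS3 reporter with the site 19 bp from the promoter, 48 hours at 37°C on M9-minus-histidine plus 0.1 mM IPTG and 5 mM 3-AT. Libraries were Caulobacter ParB with four randomised specificity codons, sequenced on Illumina before and after selection. Fitness is the rescaled log change in variant-to-wild-type read ratio, anchored to the cognate and non-cognate sites.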
row,Variant,one-hybrid fitness for binding NBS DNA
1,CPAV,≤ 0.2
2,DVAG,≤ 0.2
3,TLPF,≤ 0.2
4,GKYT,≤ 0.2
5,PRNY,≤ 0.2
6,NVPV,≤ 0.2
7,LCYR,≤ 0.2
8,TIKL,≤ 0.2
9,TTIN,≤ 0.2
10,VKVQ,≤ 0.2
11,IQAD,≤ 0.2
12,FPRN,≤ 0.2
13,HAAT,≤ 0.2
14,FGQT,≤ 0.2
15,LKLD,≤ 0.2
16,FSML,≤ 0.2
17,IPTT,≤ 0.2
18,PHHM,≤ 0.2
19,WQRT,≤ 0.2
20,RLHS,0.462
21,PQTR,≤ 0.2
22,MGHQ,≤ 0.2
23,LFKI,≤ 0.2
24,WCKK,≤ 0.2
25,YIPR,≤ 0.2
26,YGMS,≤ 0.2

row,Variant,one-hybrid fitness for binding NBS DNA
1,VSSY,≤ 0.2
2,LTPS,≤ 0.2
3,MTVE,≤ 0.2
4,FHGL,≤ 0.2
5,RNQK,≤ 0.2
6,QFGR,0.262
7,VCLY,≤ 0.2
8,SGPE,≤ 0.2
9,TYRS,≤ 0.2
10,IAAY,≤ 0.2
11,SCYS,≤ 0.2
12,PWWS,≤ 0.2
13,YRGM,≤ 0.2
14,QTLF,≤ 0.2
15,QRQT,0.755
16,IDCR,≤ 0.2
17,APQK,≤ 0.2
18,DIWR,≤ 0.2
19,ILTR,≤ 0.2
20,EKCR,≤ 0.2
21,KWNC,≤ 0.2
22,KRSA,0.255
23,GKKV,≤ 0.2
24,ELVN,≤ 0.2
25,DLFC,≤ 0.2
26,DNRS,≤ 0.2

row,Variant,one-hybrid fitness for binding NBS DNA
1,YQLR,≤ 0.2
2,VVCY,≤ 0.2
3,QVGF,≤ 0.2
4,QIAD,≤ 0.2
5,EIYW,≤ 0.2
6,DTGL,≤ 0.2
7,WVHT,≤ 0.2
8,PMGC,≤ 0.2
9,LEEM,≤ 0.2
10,WCTL,≤ 0.2
11,SLIR,≤ 0.2
12,QELG,≤ 0.2
13,PDPT,≤ 0.2
14,GQVG,≤ 0.2
15,GYPC,≤ 0.2
16,KHDT,≤ 0.2
17,LLQL,≤ 0.2
18,RTNT,0.636
19,LANR,≤ 0.2
20,PITK,≤ 0.2
21,QCDV,≤ 0.2
22,AGNL,≤ 0.2
23,NRLT,≤ 0.2
24,QVRF,≤ 0.2
